# According to PubChem BioAssay AID686978 (National Center for Advancing Translational Sciences (NCATS), 2013):
# The whole screen tested about 420,000 compounds, of which about 64,000 (15%) were called active. This list was built around the results that the source calls inconclusive (neither active nor inactive); the mix of calls is not that of the screen. Calls follow the shape of the dose curve; as a rule, active = well fitted inhibition curve with a large enough effect; inconclusive = small, poorly fitted or top-dose-only effect; inactive = flat fitted curve, though single readings scatter. No potency is given beside an inconclusive call; the fits are too rough.
# Test: qHTS for Inhibitors of human tyrosyl-DNA phosphodiesterase 1 (TDP1): qHTS in cells in absence of CPT; also: nearly all actives have a fitted effect of over 55% in size
# Conditions: DT40 Tdp1-/- hTDP1 cells, no CPT, ATP luminescence, 48 h; activity change, negative = growth inhibition: at 46.2 µM (top of the series) unless noted
# Method in brief: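 No-CPT arm: Tdp1-/-;hTDP1 DT40 cells (400/well) plus compounds, incubated ≥48 hr at 37 °C. Readout CellTiter-Glo luminescence.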
# % is scaled to controls: 0 for no effect and ±100 for the full control effect; potency is read from the fitted curve at half-maximal effect; tags tell the direction and shape of the fitted curve.
Compound,Potency,"activity change, negative = growth inhibition"
CCC(C)C1Nc2ccc(C(=O)NCc3ccc4c(c3)OCO4)cc2NC1=O (configuration not stated),"inconclusive [inhibitor, partial curve, poor fit]",
CCc1ccc(NC(=O)c2cnc(N3CCN(c4ccccn4)CC3)c3ccccc23)cc1,active: 6.51 µM,
CCOc1ccc(CCNC(=O)c2cc3cc4cc(OC)ccc4nc3s2)cc1OCC,"inconclusive [inhibitor, full curve]",
COc1ncc2nc(-c3ccccc3)c(=O)n(C[C@H]3CCCO3)c2n1,inactive,
CCOc1ccc(-c2cccc(NS(=O)(=O)c3ccccc3[N+](=O)[O-])c2)nn1,inactive,
COc1ccc(-c2noc(N3CCN(c4ccc(Cl)cc4)CC3)n2)cc1OC,inactive,
COc1cccc(NC(=O)CCSc2nc(-c3ccco3)cc(C(F)(F)F)n2)c1,"inconclusive [inhibitor, partial curve]",
O=C(NC1CCN(Cc2ccccc2)CC1)c1cccc(Br)c1,"inconclusive [inhibitor, single point]",
Cc1ccc(Cc2c(-c3ccc(F)cc3)nc3ccc(Cl)cn23)cc1,"inconclusive [inhibitor, single point]",
CC1=NN(c2ccccc2)C(=O)C1C(=O)c1ccc(Cl)cc1 (configuration not stated),active: 23.1 µM,
Cc1cc(C)c(S(=O)(=O)NCC(c2cccnc2)N2CCN(Cc3ccccc3)CC2)c(C)c1 (configuration not stated),"inconclusive [inhibitor, single point]",
O=C(CN1CCN(c2ccccn2)CC1)Nc1cccc(S(=O)(=O)N2CCCC2)c1,active: 16.4 µM,
CC(C)Cc1nn2c(=O)cc(COC(=O)c3ccccc3NC(=O)c3cccs3)nc2s1,"inconclusive [inhibitor, partial curve]",
Cn1c(N)c(C(=O)COC(=O)C2(c3ccccc3F)CCCC2)c(=O)n(C)c1=O,"inconclusive [inhibitor, partial curve, poor fit]",
Cc1cccc(NC(=O)CCN2CCC(C)CC2)c1,inactive,
O=C(c1sc2cccc(F)c2c1Cl)N1CCN(c2ncccn2)CC1,"inconclusive [inhibitor, single point]",
CCC(=O)Nc1ccccc1C(=O)OCc1ccc(C(=O)c2ccccc2)cc1,"inconclusive [inhibitor, single point]",
O=C(COc1ccccc1Cl)NNC(=O)c1ccc(-n2cncn2)c([N+](=O)[O-])c1,inactive,
O=C(CN1C(=O)COc2ccc(Cl)cc21)N1CCCCC1,inactive,
O=C(c1cccc(C(F)(F)F)c1)c1c[nH]c(C(=O)NCC2CCCO2)c1 (configuration not stated),"inconclusive [inhibitor, single point]",
Cc1cn2c(N)c(C=C3C=C(Cl)C(=O)C(Cl)=C3)c(=O)nc2s1,"inconclusive [inhibitor, single point]",
COc1ccccc1CNC(=O)C(C)Sc1ccsc1[N+](=O)[O-] (configuration not stated),"inconclusive [inhibitor, single point]",
CC(=O)N=C1SC2CS(=O)(=O)CC2N1c1c(Cl)cccc1Cl (configuration not stated),"inconclusive [inhibitor, full curve]",
C=CCn1c(=O)c2ccccc2n2c(SCC(=O)NCC)nnc12,inactive,

Compound,Potency,"activity change, negative = growth inhibition"
Cc1cc(C)cc(NC(=O)Cn2cc(C(=O)c3ccncc3)c(=O)c3cc(C)c(C)cc32)c1,"inconclusive [inhibitor, single point]",
CC1(C)CC(O)CC(C)(C)N1CC(O)COCc1ccccc1 (configuration not stated),inactive,
COC(=O)C1CC23C=CCN4CCC5(c6ccccc6NC15C2C)C43 (configuration not stated),active: 1.3 µM,
O=S1(=O)CCC(N=Nc2c(O)n(Cc3ccccc3)c3ccccc23)C1 (configuration not stated),"inconclusive [inhibitor, single point]",
Cc1cccc(NC(=O)C2CCN(S(=O)(=O)c3ccc4[nH]c5c(c4c3)CCCCC5)CC2)c1,"inconclusive [inhibitor, single point]",
O=C(Nc1ccn(CCCN2CCN(Cc3ccc(F)cc3)CC2)c(=O)n1)OCc1ccccc1,active: 14.6 µM,
COc1ccc(CCNC(=O)COC(=O)/C=C/c2ccc(OC)c(OC)c2)cc1,inactive,
Cc1cccc(C)c1NC(=O)C1(C)CSCC(=O)N1Cc1cccc(F)c1 (configuration not stated),inactive,
COc1c(Cl)cc(C(=O)O)cc1Cl,inactive,
CCOc1ccc(-n2nc3c(SCCN4CCCC4)nnc(C)c3c2C)cc1,inactive,
COc1ccc(NC(=O)N2CC[C@@]3(CCCN(C(=O)c4cccc(F)c4)C3)C2)cc1,inactive,
COc1ccc(CNC(=O)C2CCN(S(=O)(=O)c3ccc4nc5c(c(C(=O)O)c4c3)CCCC5)CC2)cc1,inactive,
CCOC(=O)C(C)C1(O)c2ccccc2-c2ncccc21 (configuration not stated),inactive,
COc1cc(C(=S)N2CCOCC2)cc(OC)c1OC(=O)c1cccc(C)c1,"inconclusive [inhibitor, partial curve]",
O=C(Nc1ccc(-n2cccn2)cc1)C1CCCCN1Cc1cccc2cccnc12 (configuration not stated),"inconclusive [inhibitor, single point]",
CCOC(=O)C1(Cc2ccccc2C)CCCN(C(=O)c2ccnn2C)C1 (configuration not stated),"inconclusive [inhibitor, single point]",
CCCc1c(C)c(C#N)c2nc3ccccc3n2c1NCCCN1CCOCC1,"inconclusive [inhibitor, single point]",
Cc1ccc(-c2nnc(N3CCN(C(=O)COc4cccc(C)c4)CC3)c3ccccc23)cc1,"inconclusive [inhibitor, single point]",
Cc1ccccc1NC(=O)Cc1nc(COC(=O)CSc2ccccc2)cs1,inactive,
COc1cc(C(=O)Nc2ccc3c(c2)Cc2ccccc2-3)cc(OC)c1OC,"inconclusive [inhibitor, full curve]",
Cc1c(C(=O)N2CCN(c3ccc([N+](=O)[O-])cc3)CC2)oc2ccccc12,active: 16.4 µM,
CC(C(=O)Nc1sc2c(c1C#N)CCCCC2)N1C(=O)c2ccccc2C1=O (configuration not stated),inactive,
CCCCCn1c(=O)[nH]c2cc(C(=O)N3CCN(c4cccc(Cl)c4)CC3)ccc2c1=O,"inconclusive [inhibitor, single point]",
Cn1nc(OCC(=O)O)cc1C(F)(F)F,inactive,

Compound,Potency,"activity change, negative = growth inhibition"
O=S(=O)(c1ccc(NC(=S)NN=C(Cc2ccccc2)Cc2ccccc2)cc1)N1CCOCC1,"inconclusive [inhibitor, full curve]",
Fc1ccccc1NC(=S)N1CCN(C/C=C/c2ccccc2)CC1,"inconclusive [inhibitor, single point]",
Cc1ccc(S(=O)(=O)c2nc(/C=C/c3ccccc3)oc2N2CCC(C(N)=O)CC2)cc1,"inconclusive [inhibitor, single point]",
CCOC(=O)C1CCN(C(=O)c2ccccc2NS(=O)(=O)c2ccc(F)c(F)c2)CC1,"inconclusive [inhibitor, single point]",
O=C(CCc1ccccc1)NNC(=O)COc1ccc(Br)cc1,inactive,
COc1ccc(CCN(Cc2cccs2)S(=O)(=O)c2ccc(S(=O)(=O)N(C)C3CCCCC3)cc2)cc1OC,"inconclusive [inhibitor, single point]",
Clc1ccccc1CSc1nnc(-c2cccnc2)n1Cc1ccco1,"inconclusive [inhibitor, partial curve]",
Fc1cc(Cl)ccc1NC1=NCCCCC1,inactive,
COc1cccc(-c2nnc(SCC(=O)OC(C)C)n2Cc2ccco2)c1,"inconclusive [inhibitor, single point]",
O=C(COc1ccc(Cl)cc1)Nc1ccccc1CO,"inconclusive [inhibitor, single point]",
C=CC[C@H](CC(=O)NCCO)C(=O)N[C@@H](C)COC(=O)[C@@H](CC=C)CC(=O)OC(C)(C)C,inactive,
Cc1ccccc1NC(=O)c1cc2sccc2n1Cc1ccc(F)cc1,active: 25.9 µM,
COc1cc(C2c3c(-c4ccccc4O)n[nH]c3C(=O)N2Cc2ccco2)cc(OC)c1OC (configuration not stated),inactive,
Cc1ccc(S(=O)(=O)N(C)CC(=O)NNC(=O)CCNS(=O)(=O)c2cccc(C)c2)cc1,"inconclusive [inhibitor, single point]",
NS(=O)(=O)c1ccc(NC(=O)CN2CCCCC2)cc1,inactive,
COc1cc(OC)cc(C(=O)N2CCN(C(=O)c3ccc(-c4ccccc4)cc3)CC2)c1,"inconclusive [inhibitor, single point]",
N#Cc1cccc(C#N)c1Oc1ccc(N)cc1,,inconclusive: -8.67% [inhibitor]
COc1ccc(OC)c(CNC(=O)c2cc(S(=O)(=O)N3CCC(C)CC3)cn2C)c1,"inconclusive [inhibitor, single point]",
COc1ccc(NC(=O)C2CCCN(S(=O)(=O)c3cccs3)C2)cc1OC (configuration not stated),"inconclusive [inhibitor, partial curve]",
NS(=O)(=O)c1ccc(CNC(=S)Nc2ccc(F)c(Cl)c2)cc1,"inconclusive [inhibitor, partial curve, poor fit]",
CCOC(=O)C1=C(C)NC(C)=C(C(=O)OCC)C1c1cccs1,active: 23.1 µM,
CCCC(C(=O)NCc1ccco1)N(C(=O)CNS(=O)(=O)c1ccccc1)C1CCCC1 (configuration not stated),,inconclusive: -39.4% [inhibitor]
COc1ccccc1C(=O)NCCC(=O)Nc1ncccc1C,inactive,
Oc1ccccc1/C=N/NC(=S)NC1CC2C=CC1C2 (configuration not stated),active: 1.64 µM,
